This is an account of results in the supplement of paper PMC9446081.

Out of some 39,000 compounds screened, about 220 (0.56%) showed activity. The list shows a part of the results.
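Note: static incubation at 37 °C against the wild-type strain, values averaged over two biological replicates.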

This test has as its system Escherichia coli K-12 BW25113. The experiment in a line: relative growth (OD600 normalised to plate interquartile mean) (fraction); higher = less growth inhibition, active = 0.2 or less. The settings on record: 50 µM; LB; incubation time: overnight (16-24 h).
For `C[C@H](CO)N1C[C@H](C)[C@H](CN(C)C(=O)NC2CCCCC2)Oc2c(NS(=O)(=O)c3cn(C)cn3)cccc2C1=O`, the relative growth is inactive: 0.997.

`C[C@@H]1CCCCO[C@@H](CN(C)Cc2ccc(C(=O)Nc3ccccc3N)cc2)[C@@H](C)CN([C@H](C)CO)C(=O)c2cc(NC(=O)c3ccccc3)ccc2O1`: the relative growth was inactive: 1.

For `C/C=C/c1cnc2c(c1)C(=O)N([C@@H](C)CO)C[C@H](C)[C@H](CN(C)S(=O)(=O)c1ccc(OC)cc1)O2`, the relative growth was inactive: 0.99.

Regarding `Cc1noc(C)c1NC(=O)N(C)C[C@@H]1OCCCC[C@@H](C)Oc2ccc(NC(=O)Nc3ccc(F)cc3)cc2C(=O)N([C@@H](C)CO)C[C@H]1C`, the relative growth is inactive: 0.982.

For the compound `C[C@@H]1CCCCO[C@H](CN(C)C(=O)Nc2ccc(F)cc2)[C@H](C)CN([C@@H](C)CO)C(=O)c2cc(NC(=O)Nc3ccccc3)ccc2O1`, the relative growth is inactive: 1.03.

Regarding `C[C@@H]1CN([C@H](C)CO)C(=O)Cc2cc(NC(=O)C3CC3)ccc2O[C@@H]1CN(C)C(=O)Nc1ccc(F)cc1`, the relative growth was inactive: 1.03.

Take `C[C@H]1CN([C@@H](C)CO)C(=O)CCCn2nncc2CO[C@@H]1CN(C)S(=O)(=O)c1ccc(Oc2ccccc2)nc1`: the relative growth is inactive: 0.997.

For the compound `O=C(C[C@H]1CC[C@@H]2[C@H](COC[C@@H](O)CN2S(=O)(=O)c2ccccc2)O1)N1CCOCC1`, the relative growth was inactive: 0.968.

Turning to `C[C@H]1CCCCO[C@@H](CN(C)S(=O)(=O)c2ccc(F)cc2)[C@@H](C)CN([C@@H](C)CO)C(=O)c2cc(NC(=O)C3CCCCC3)ccc2O1`, the relative growth is inactive: 1.01.

As to `CO[C@@H]1CN(C)C(=O)c2ccc(NC(=O)c3nc4ccccc4s3)cc2OC[C@@H](C)N(Cc2ccccc2)C[C@H]1C`, the relative growth is inactive: 1.01.

Take `COc1ccc(COCC23Oc4ccccc4[C@H]([C@H]2COC(=O)NCCCCCC(=O)NO)n2c(c4c(c(C(C)=O)c2=O)C(=O)N(C)C4=O)N3C)cc1`: the relative growth was inactive: 0.996.

For the compound `C=CCOC(=O)[C@@H]1[C@H]2C(=O)O[C@H](c3ccccc3)[C@H](c3ccccc3)N2[C@H](c2ccc(OCCOC(=O)[C@H]3C[C@H]4C(=O)N[C@@H](Cc5ccccc5)C(=O)N4[C@H]3c3ccc(O)cc3)cc2)[C@@]12C(=O)Nc1ccc(I)cc12`, the relative growth was inactive: 1.01.

For the compound `C[C@@H]1CN([C@H](C)CO)S(=O)(=O)c2ccc(C#Cc3ccccc3)cc2O[C@H]1CN(C)C(=O)c1ccccn1`, the relative growth was inactive: 1.02.

As for `O=C([C@H]1[C@H](CO)[C@H]2Cn3c(cccc3=O)[C@@H]1N2CC1CCCC1)N1CCOCC1`, the relative growth is inactive: 1.03.

In the case of `O=C(C[C@@H]1C=C[C@H](NC(=O)c2cnccn2)[C@@H](CO)O1)NCc1ccccc1F`, the relative growth is inactive: 1.

Take `O=c1[nH]nc(N2CCOCC2)c(=O)[nH]1`: the relative growth was inactive: 0.904.

Turning to `COc1ccc(S(=O)(=O)Nc2ccc3c(c2)C(=O)N([C@@H](C)CO)C[C@H](C)[C@@H](CN(C)Cc2ccc4c(c2)OCO4)OCCCC[C@@H](C)O3)cc1`, the relative growth is inactive: 0.987.

As to `C[C@H]1CN([C@@H](C)CO)C(=O)Cc2cc(NC(=O)C3CC3)ccc2O[C@H]1CN(C)C(=O)NC1CCCCC1`, the relative growth is inactive: 1.01.

Take `C[C@H](CO)N1C[C@H](C)[C@@H](CN(C)C(=O)CCC(F)(F)F)OCCCC[C@H](C)Oc2ccc(NC(=O)Cc3ccccc3)cc2C1=O`: the relative growth was inactive: 1.02.

As for `CC(=O)N=c1sc(S(N)(=O)=O)nn1C`, the relative growth was inactive: 0.974.

Consider `C[C@@H]1CN([C@H](C)CO)S(=O)(=O)c2ccc(C#CC3(O)CCCC3)cc2O[C@H]1CN(C)C(=O)c1ccncc1`, for which the relative growth was inactive: 1.01.

Regarding `COc1cccc(-c2ccc3c(c2)O[C@H](CN(C)Cc2cncnc2)[C@@H](C)CN([C@H](C)CO)S3(=O)=O)c1`, the relative growth was inactive: 1.01.

Take `C[C@@H]1CN([C@@H](C)CO)C(=O)c2cc(NC(=O)CCC(F)(F)F)ccc2O[C@@H](C)CCCCO[C@H]1CN(C)C(=O)C1CCCCC1`: the relative growth is inactive: 0.964.

As to `C[C@@H]1CN([C@H](C)CO)C(=O)CCCn2cc(nn2)CO[C@H]1CN(C)Cc1ccc(C(=O)Nc2ccccc2N)cc1`, the relative growth is inactive: 0.852.

In the case of `C[C@@H]1CCCCO[C@H](CN(C)C(=O)CCC(F)(F)F)[C@@H](C)CN([C@@H](C)CO)C(=O)c2cc(NC(=O)c3ccccc3)ccc2O1`, the relative growth is inactive: 1.

Consider `CC(C)NC(=O)N(C)C[C@@H]1Oc2ccc(NS(=O)(=O)c3ccccc3)cc2CC(=O)N([C@@H](C)CO)C[C@H]1C`, for which the relative growth is inactive: 0.969.

As for `O=C(C[C@@H]1C[C@@H]2c3cc(NS(=O)(=O)c4ccc(F)cc4)ccc3O[C@@H]2[C@H](CO)O1)NC1CCCCC1`, the relative growth is inactive: 0.961.

`COc1ccccc1-c1ccc2c(c1)O[C@@H](CN(C)C(=O)c1ccncc1)[C@@H](C)CN([C@@H](C)CO)S2(=O)=O`: the relative growth was inactive: 0.993.

As to `C[C@@H]1CN([C@@H](C)CO)C(=O)Cc2cc(NC(=O)Nc3cccc4ccccc34)ccc2O[C@H]1CN(C)Cc1ccc(Oc2ccccc2)cc1`, the relative growth was inactive: 1.02.

For the compound `COc1cc(C=Cc2ccc(O)cc2)cc(OC)c1`, the relative growth is inactive: 0.796.

`COc1ccc(NC(=O)Nc2ccc3c(c2)C(=O)N([C@H](C)CO)C[C@@H](C)[C@H](CN(C)S(=O)(=O)c2cccs2)OCCCC[C@@H](C)O3)cc1`: the relative growth is inactive: 1.04.

On to `C[C@H]1CN([C@@H](C)CO)S(=O)(=O)c2ccc(C#Cc3ccccc3)cc2O[C@@H]1CN(C)C(=O)CN(C)C`, for which the relative growth is inactive: 0.955.

On to `C[C@@H]1CN([C@H](C)CO)C(=O)c2c(c3ccccc3n2C)-c2ccccc2CO[C@H]1CN(C)S(=O)(=O)c1ccc(C(F)(F)F)cc1`, for which the relative growth was inactive: 1.03.

As for `C[C@@H]1CN([C@@H](C)CO)C(=O)c2cccc(NC(=O)c3ccc(-c4nccs4)cc3)c2O[C@H]1CN(C)C(=O)Nc1cccc2ccccc12`, the relative growth is inactive: 0.886.

In the case of `C[C@@H]1CCCCO[C@@H](CN(C)CC2CCCCC2)[C@H](C)CN([C@H](C)CO)C(=O)c2cc(NC(=O)Nc3ccccc3)ccc2O1`, the relative growth was inactive: 0.798.

On to `CC(C)NC(=O)Nc1ccc2c(c1)C(=O)N([C@@H](C)CO)C[C@@H](C)[C@@H](CN(C)Cc1ccc3c(c1)OCO3)O2`, for which the relative growth was inactive: 0.999.

Regarding `C[C@H](CO)N1C[C@H](C)[C@H](CN(C)S(=O)(=O)c2ccc(Cl)cc2)OCCCC[C@H](C)Oc2ccc(NC(=O)Cc3ccccc3)cc2C1=O`, the relative growth is inactive: 1.01.

Consider `COc1ccc(S(=O)(=O)N(C)C[C@@H]2OCCCC[C@@H](C)Oc3ccc(NC(=O)C4CCCCC4)cc3C(=O)N([C@H](C)CO)C[C@@H]2C)cc1`, for which the relative growth is inactive: 1.

Turning to `C[C@@H]1CN([C@H](C)CO)C(=O)Cc2cc(NS(=O)(=O)c3ccc(Cl)cc3)ccc2O[C@H]1CN(C)C`, the relative growth is inactive: 0.992.

Regarding `C[C@@H]1CN([C@@H](C)CO)C(=O)c2cc(-c3cccc(C(=O)N(C)C)c3)cnc2O[C@@H]1CN(C)S(=O)(=O)c1ccccc1`, the relative growth was inactive: 1.01.

`C[C@H](CO)N1C[C@H](C)[C@@H](CN(C)C(=O)CN(C)C)Oc2cc(-c3ccc(C#N)cc3)ccc2S1(=O)=O`: the relative growth is inactive: 1.01.

`Cn1nnnc1SCC1=C(C(=O)[O-])N2C(=O)C(NC(=O)C(OC=O)c3ccccc3)C2SC1.[Na+]` (stereo not given): the relative growth is inactive: 0.365.

In the case of `C[C@@H]1CN([C@H](C)CO)C(=O)c2cccc(NS(C)(=O)=O)c2O[C@H]1CN(C)Cc1ccc(C(=O)O)cc1`, the relative growth was inactive: 0.994.

Regarding `CCS(=O)(=O)Nc1ccc2c(c1)C(=O)N(C)[C@@H]1CC[C@@H](CC(=O)NCc3ccccc3F)O[C@H]1CO2`, the relative growth is inactive: 1.02.

On to `Cc1noc(C)c1NC(=O)N[C@H]1CC[C@H](CC(=O)NCCCN(C)C)O[C@@H]1CO`, for which the relative growth is inactive: 0.995.

Turning to `C[C@H]1CCCCO[C@H](CN(C)C(=O)C2CCCCC2)[C@@H](C)CN([C@@H](C)CO)C(=O)c2cc(NC(=O)CCC(F)(F)F)ccc2O1`, the relative growth is inactive: 0.996.

Turning to `C[C@@H]1CN([C@@H](C)CO)C(=O)Cc2cc(NC(=O)NC3CCCCC3)ccc2O[C@@H]1CN(C)S(C)(=O)=O`, the relative growth is inactive: 1.02.

Take `Cc1ccc(S(=O)(=O)Nc2ccc3c(c2)C(=O)N([C@@H](C)CO)C[C@H](C)[C@H](CN(C)Cc2ccc(C(F)(F)F)cc2)O3)cc1`: the relative growth is inactive: 1.01.

As to `C[C@@H]1CC[C@@]2(OC1)O[C@H]1C[C@H]3[C@H]4C[C@@H](O)[C@H]5C[C@@H](O[C@@H]6O[C@H](CO)[C@H](O[C@@H]7O[C@H](CO)[C@@H](O)[C@H](O[C@@H]8OC[C@@H](O)[C@H](O)[C@H]8O)[C@H]7O[C@@H]7O[C@H](CO)[C@@H](O)[C@H](O)[C@H]7O)[C@H](O)[C@H]6O)[C@H](O)C[C@]5(C)[C@@H]4CC[C@]3(C)[C@H]1[C@@H]2C`, the relative growth was inactive: 0.965.

For `C/C=C/C1=CC(=O)[C@H](O)[C@H]1O`, the relative growth is inactive: 0.996.

For the compound `C[C@@H]1CN([C@@H](C)CO)C(=O)c2cc(NC(=O)Nc3cccc4ccccc34)ccc2O[C@H]1CN(C)S(=O)(=O)c1ccc(F)cc1`, the relative growth was inactive: 0.995.

With `COc1ccc(CN(C)C[C@@H]2OCCCC[C@H](C)Oc3ccc(NS(=O)(=O)c4ccccc4)cc3C(=O)N([C@@H](C)CO)C[C@@H]2C)cc1`, the relative growth is inactive: 0.991.

Turning to `Cc1ccc(S(=O)(=O)N(C)C[C@H]2OCCCC[C@@H](C)Oc3ccc(NC(=O)Nc4c(C)noc4C)cc3C(=O)N([C@H](C)CO)C[C@@H]2C)cc1`, the relative growth was inactive: 1.02.

As to `C[C@@H]1CN([C@@H](C)CO)S(=O)(=O)c2ccc(-c3cccc(C(=O)N(C)C)c3)cc2O[C@H]1CN(C)C(=O)Cc1ccccn1`, the relative growth is inactive: 1.01.

As to `O=S1(=O)CC[C@H](S(=O)(=O)[C@H]2CCS(=O)(=O)C2)C1`, the relative growth was inactive: 0.883.
